Data published in article PMC9911399, “Two distinct binding modes provide the RNA-binding protein RbFox with extraordinary sequence specificity”.
Substitutions are numbered along the chain they refer to; changes in the protein carry UniProt numbers. This is one part of the list.

B1: CGAGUUA (DNA:RNA)
RNA: GGGAGACCGGAAUUCAGAUUGUCCCGAGUUAUUAAAUCCCGUCGUAGCCACCA
DNA 1: CAATCTGAATTCCGGTCTCCC
DNA 2: TGGTGGCTACGACGGGATT
B2: UCCGCGC (DNA:RNA)
RNA: B1 RNA with C25U, G26C, A27C, U29C, U30G, A31C
DNA 1: CAATCTGAATTCCGGTCTCCC
DNA 2: TGGTGGCTACGACGGGATT
B3: ACGAGGG (DNA:RNA)
RNA: GGGAGACCGGAAUUCAGAUUGUCCACGAGGGUUAAAUCCCGUCGUAGCCACCA
DNA 1: CAATCTGAATTCCGGTCTCCC
DNA 2: TGGTGGCTACGACGGGATT
B4: CUGGCAA (DNA:RNA)
RNA: B1 RNA with G26U, A27G, U29C, U30A
DNA 1: CAATCTGAATTCCGGTCTCCC
DNA 2: TGGTGGCTACGACGGGATT
B5: AUUCAAC (DNA:RNA)
RNA: B3 RNA with C26U, G27U, A28C, G29A, G30A, G31C
DNA 1: CAATCTGAATTCCGGTCTCCC
DNA 2: TGGTGGCTACGACGGGATT
B6: AACUACU (DNA:RNA)
RNA: B3 RNA with C26A, G27C, A28U, G29A, G30C, G31U
DNA 1: CAATCTGAATTCCGGTCTCCC
DNA 2: TGGTGGCTACGACGGGATT
B7: UACAGGA (DNA:RNA)
RNA: B3 RNA with A25U, C26A, G27C, G31A
DNA 1: CAATCTGAATTCCGGTCTCCC
DNA 2: TGGTGGCTACGACGGGATT
B8: GUCUCGA (DNA:RNA)
RNA: B3 RNA with A25G, C26U, G27C, A28U, G29C, G31A
DNA 1: CAATCTGAATTCCGGTCTCCC
DNA 2: TGGTGGCTACGACGGGATT
B9: UCUAUUC (DNA:RNA)
RNA: B3 RNA with A25U, G27U, G29U, G30U, G31C
DNA 1: CAATCTGAATTCCGGTCTCCC
DNA 2: TGGTGGCTACGACGGGATT
B10: UUAUGGG (DNA:RNA)
RNA: B3 RNA with A25U, C26U, G27A, A28U
DNA 1: CAATCTGAATTCCGGTCTCCC
DNA 2: TGGTGGCTACGACGGGATT
B11: GACCGCC (DNA:RNA)
RNA: B3 RNA with A25G, C26A, G27C, A28C, G30C, G31C
DNA 1: CAATCTGAATTCCGGTCTCCC
DNA 2: TGGTGGCTACGACGGGATT
B12: UCUCCAG (DNA:RNA)
RNA: B3 RNA with A25U, G27U, A28C, G29C, G30A
DNA 1: CAATCTGAATTCCGGTCTCCC
DNA 2: TGGTGGCTACGACGGGATT
B13: UCCGAGG (DNA:RNA)
RNA: B3 RNA with A25U, G27C, A28G, G29A
DNA 1: CAATCTGAATTCCGGTCTCCC
DNA 2: TGGTGGCTACGACGGGATT
B14: UACUAAA (DNA:RNA)
RNA: B1 RNA with C25U, G26A, A27C, G28U, U29A, U30A
DNA 1: CAATCTGAATTCCGGTCTCCC
DNA 2: TGGTGGCTACGACGGGATT
B15: CCUACUU (DNA:RNA)
RNA: B3 RNA with A25C, G27U, G29C, G30U, G31U
DNA 1: CAATCTGAATTCCGGTCTCCC
DNA 2: TGGTGGCTACGACGGGATT
B16: CACGCUA (DNA:RNA)
RNA: B1 RNA with G26A, A27C, U29C
DNA 1: CAATCTGAATTCCGGTCTCCC
DNA 2: TGGTGGCTACGACGGGATT
B17: UAACCGA (DNA:RNA)
RNA: B1 RNA with C25U, G26A, G28C, U29C, U30G
DNA 1: CAATCTGAATTCCGGTCTCCC
DNA 2: TGGTGGCTACGACGGGATT
B18: AGGGUCA (DNA:RNA)
RNA: B1 RNA with C25A, A27G, U30C
DNA 1: CAATCTGAATTCCGGTCTCCC
DNA 2: TGGTGGCTACGACGGGATT
B19: GCCUUUU (DNA:RNA)
RNA: B1 RNA with C25G, G26C, A27C, G28U, A31U
DNA 1: CAATCTGAATTCCGGTCTCCC
DNA 2: TGGTGGCTACGACGGGATT
B20: GACAUGG (DNA:RNA)
RNA: B3 RNA with A25G, C26A, G27C, G29U
DNA 1: CAATCTGAATTCCGGTCTCCC
DNA 2: TGGTGGCTACGACGGGATT
B21: GGCGUUA (DNA:RNA)
RNA: B1 RNA with C25G, A27C
DNA 1: CAATCTGAATTCCGGTCTCCC
DNA 2: TGGTGGCTACGACGGGATT
B22: CUUAUAC (DNA:RNA)
RNA: B1 RNA with G26U, A27U, G28A, U30A, A31C
DNA 1: CAATCTGAATTCCGGTCTCCC
DNA 2: TGGTGGCTACGACGGGATT
B23: GCCUCCG (DNA:RNA)
RNA: B3 RNA with A25G, G27C, A28U, G29C, G30C
DNA 1: CAATCTGAATTCCGGTCTCCC
DNA 2: TGGTGGCTACGACGGGATT
B24: AUAAAUG (DNA:RNA)
RNA: B3 RNA with C26U, G27A, G29A, G30U
DNA 1: CAATCTGAATTCCGGTCTCCC
DNA 2: TGGTGGCTACGACGGGATT
B25: CUACCAC (DNA:RNA)
RNA: B1 RNA with G26U, G28C, U29C, U30A, A31C
DNA 1: CAATCTGAATTCCGGTCTCCC
DNA 2: TGGTGGCTACGACGGGATT
B26: CUAGCUG (DNA:RNA)
RNA: B1 RNA with G26U, U29C, A31G
DNA 1: CAATCTGAATTCCGGTCTCCC
DNA 2: TGGTGGCTACGACGGGATT
B27: GAAACCC (DNA:RNA)
RNA: B3 RNA with A25G, C26A, G27A, G29C, G30C, G31C
DNA 1: CAATCTGAATTCCGGTCTCCC
DNA 2: TGGTGGCTACGACGGGATT
B28: UAGUGCC (DNA:RNA)
RNA: B3 RNA with A25U, C26A, A28U, G30C, G31C
DNA 1: CAATCTGAATTCCGGTCTCCC
DNA 2: TGGTGGCTACGACGGGATT
B29: CCGUUAG (DNA:RNA)
RNA: B3 RNA with A25C, A28U, G29U, G30A
DNA 1: CAATCTGAATTCCGGTCTCCC
DNA 2: TGGTGGCTACGACGGGATT
B30: UCGACCU (DNA:RNA)
RNA: B3 RNA with A25U, G29C, G30C, G31U
DNA 1: CAATCTGAATTCCGGTCTCCC
DNA 2: TGGTGGCTACGACGGGATT
B31: GUAUUGG (DNA:RNA)
RNA: B3 RNA with A25G, C26U, G27A, A28U, G29U
DNA 1: CAATCTGAATTCCGGTCTCCC
DNA 2: TGGTGGCTACGACGGGATT

What follows are binders tested against T1, RBFOX1 RRM RbFoxmut (Fox-RRM*) (Homo sapiens, UniProt Q9NWB1 109-208, R118D;E147R;N151S;E152T) (assay: EMSA; HiTS-Eq, 1 nM pool, 10 min; buffer printed only for the single-RNA assays: 10 mM Tris pH 7.5, 150 mM NaCl, 3.4 mM EDTA, 0.001% NP-40, 30 C). Settings: tags: His6 N-terminal (pET28a); label: 5' 32P.
T1 sequence: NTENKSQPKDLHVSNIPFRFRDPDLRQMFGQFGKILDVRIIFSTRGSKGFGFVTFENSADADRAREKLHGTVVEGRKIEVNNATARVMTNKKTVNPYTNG
In short: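 A pool of RNA with 7 randomized nucleotides, 5′-radiolabelled and with DNA-annealed flanks, was equilibrated at 1 nM for 10 min in 50 µL with purified RbFox RRM, wild type or mutant, across increasing protein concentrations. Free RNA was separated by 8% native PAGE, excised, reverse-transcribed, barcoded by PCR and sequenced. Relative association constants were obtained from read-count changes of each RNA species versus the control reaction and normalised to the cognate motif.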

Row | Binder | binding signal
1 | B1 | 0.109 KA relative to UGCAUGU
2 | B2 | 0.0955 KA relative to UGCAUGU
3 | B3 | 0.0724 KA relative to UGCAUGU
4 | B4 | 0.0738 KA relative to UGCAUGU
5 | B5 | 0.0828 KA relative to UGCAUGU
6 | B6 | 0.115 KA relative to UGCAUGU
7 | B7 | 0.0714 KA relative to UGCAUGU
8 | B8 | 0.242 KA relative to UGCAUGU
9 | B9 | 0.0896 KA relative to UGCAUGU
10 | B10 | 0.0747 KA relative to UGCAUGU
11 | B11 | 0.0887 KA relative to UGCAUGU
12 | B12 | 0.0963 KA relative to UGCAUGU
13 | B13 | 0.0607 KA relative to UGCAUGU
14 | B14 | 0.0846 KA relative to UGCAUGU
15 | B15 | 0.0884 KA relative to UGCAUGU
16 | B16 | 0.101 KA relative to UGCAUGU

Row | Binder | binding signal
17 | B17 | 0.0866 KA relative to UGCAUGU
18 | B18 | 0.112 KA relative to UGCAUGU
19 | B19 | 0.0724 KA relative to UGCAUGU
20 | B20 | 0.139 KA relative to UGCAUGU
21 | B21 | 0.118 KA relative to UGCAUGU
22 | B22 | 0.102 KA relative to UGCAUGU
23 | B23 | 0.0932 KA relative to UGCAUGU
24 | B24 | 0.118 KA relative to UGCAUGU
25 | B25 | 0.119 KA relative to UGCAUGU
26 | B26 | 0.137 KA relative to UGCAUGU
27 | B27 | 0.0217 KA relative to UGCAUGU
28 | B28 | 0.27 KA relative to UGCAUGU
29 | B29 | 0.113 KA relative to UGCAUGU
30 | B30 | 0.0565 KA relative to UGCAUGU
31 | B31 | 0.162 KA relative to UGCAUGU
